According to the supplement of paper PMC12217912:
The list shows a part of the results. Sequences were assembled here from the parent chain. Values near 0.05 are background.

B1: TEV protease; numbered along this chain (parent)
chain: MGESLFKGPRDYNPISSSICHLTNESDGHTTSLYGIGFGPFIITNKHLFRRNNGTLVVQSLHGVFKVKDTTTLQQHLVDGRDMIIIRMPKDFPPFPQKLKFREPQREERICLVTTNFQTKSMSSMVSDTSCTFPSGDGIFWKHWIQTKDGQCGSPLVSTRDGFIVGIHSASNFTNTNNYFTSVPKNFMELLTNQEAQQWVSGWRLNADSVLWGGHKVFMVKPEEPFQPVKEATQL

Variants of: B1
Test: raw area under fraction-flipped curve 0-4 h after induction (AUC4h, not background-subtracted), DNA-recorder readout of cleavage of the substrate (dimensionless); higher = more cleavage of the substrate by the protease variant
Conditions: temperature: 34 °C; time window: 0-4 h after rhamnose induction
Method: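 In vivo DNA recorder in E. coli TOP10(DE3) ΔrhaA at 34 °C. Each TEVp single-site mutant (parent TEVp 0) is paired with a single-site variant of the 7-mer TEVs (canonical ENLYFQ|S). The substrate sits between flexible linkers in a Bxb1-sfGFP-TEVs-SsrA fusion, so cleavage stabilises Bxb1 and speeds flipping of a recombination array, read by NGS. The value is the raw area under the fraction-flipped curve over 0-4 h after rhamnose induction (AUC4h), with ≥20 reads per time point. It is not background-subtracted; inactive controls average about 0.047.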
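Note: Bxb1 expression induced with 0.2% (w/v) L-rhamnose at OD600 near 0.5, cultures sampled hourly, flipped fraction per protease–substrate barcode pair counted by paired-end Illumina sequencing.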

Row | Variant | area with substrate CNLYFQS | area with substrate LNLYFQS | area with substrate NNLYFQS | area with substrate PNLYFQS | area with substrate QNLYFQS | area with substrate TNLYFQS | area with substrate WNLYFQS | area with substrate YNLYFQS | area with substrate FNLYFQS | area with substrate GNLYFQS | area with substrate HNLYFQS | area with substrate KNLYFQS | area with substrate MNLYFQS | area with substrate RNLYFQS | area with substrate SNLYFQS | area with substrate INLYFQS | area with substrate VNLYFQS | area with substrate DNLYFQS
1 | L77T | 0.0633 | 0.0665 | 0.0463 | 0.0601 | 0.0328 | 0.065 | 0.0528 | 0.0535 |  |  |  |  |  |  |  |  |  | 
2 | V78A | 0.0688 | 0.0616 |  | 0.061 | 0.0654 | 0.0498 | 0.0535 |  | 0.0624 | 0.0638 | 0.0588 | 0.0557 | 0.0813 | 0.071 | 0.0677 |  |  | 
3 | V78G | 0.0536 | 0.0668 | 0.0609 | 0.0567 |  | 0.067 | 0.059 |  | 0.0559 |  | 0.0472 | 0.0884 | 0.0479 |  | 0.0521 |  |  | 
4 | D79G | 0.0704 | 0.0649 |  | 0.0631 |  | 0.0505 | 0.0518 |  | 0.0694 |  | 0.0465 |  | 0.092 |  | 0.06 | 0.062 |  | 
5 | D79L | 0.0817 |  | 0.0733 | 0.0656 |  |  | 0.0636 | 0.0596 |  |  | 0.0704 |  | 0.0769 |  | 0.0843 | 0.0576 | 0.0603 | 
6 | D79V | 0.0742 | 0.0636 | 0.0689 | 0.0608 |  | 0.0666 |  | 0.062 | 0.0546 | 0.0461 | 0.0665 | 0.0538 |  | 0.0611 | 0.0773 | 0.0726 | 0.0689 | 
7 | G80H | 0.0639 | 0.059 | 0.0598 | 0.0559 |  | 0.0648 | 0.0643 | 0.0488 | 0.0733 |  |  | 0.0781 | 0.0605 |  | 0.061 | 0.073 | 0.066 | 
8 | R81G | 0.0787 | 0.0645 | 0.0565 | 0.0776 |  | 0.0339 | 0.0626 |  |  | 0.0638 | 0.0661 |  |  |  | 0.0649 | 0.0613 | 0.0627 | 
9 | R81I | 0.0623 | 0.0678 | 0.0757 | 0.0607 |  | 0.0657 |  |  |  |  | 0.064 |  | 0.0611 |  | 0.0686 | 0.0531 | 0.0787 | 
10 | I85C | 0.0551 |  |  |  | 0.0638 | 0.0519 | 0.0613 | 0.0501 | 0.0589 | 0.0838 | 0.052 |  | 0.0598 | 0.0402 | 0.0583 |  | 0.0656 | 
11 | I85F | 0.0466 | 0.0757 |  | 0.0617 |  |  | 0.0552 | 0.0677 | 0.0694 | 0.0756 |  |  |  |  | 0.0678 | 0.0598 | 0.0608 | 
12 | I85K | 0.0592 |  | 0.047 | 0.0398 |  | 0.0527 | 0.0595 | 0.0441 |  |  | 0.053 | 0.0531 |  |  |  | 0.0459 |  | 
13 | I86F | 0.0646 |  |  | 0.0653 |  | 0.0671 | 0.0641 | 0.049 | 0.053 | 0.0599 | 0.0695 | 0.0663 | 0.0622 | 0.0463 |  | 0.0739 |  | 
14 | I86R | 0.0339 | 0.0468 |  | 0.0427 |  | 0.0565 | 0.0511 |  |  | 0.0387 | 0.027 | 0.042 | 0.0412 | 0.0311 |  | 0.0414 |  | 
15 | P89E | 0.0584 | 0.0626 | 0.0542 | 0.0634 | 0.0561 | 0.0604 | 0.0555 | 0.0517 |  | 0.0817 | 0.0483 | 0.0825 |  |  | 0.0633 | 0.0544 | 0.0734 | 
16 | P89F | 0.074 | 0.0486 |  |  |  | 0.0603 | 0.0422 |  |  | 0.0673 | 0.0556 | 0.0603 |  |  | 0.0527 |  |  | 

Row | Variant | area with substrate CNLYFQS | area with substrate LNLYFQS | area with substrate NNLYFQS | area with substrate PNLYFQS | area with substrate QNLYFQS | area with substrate TNLYFQS | area with substrate WNLYFQS | area with substrate YNLYFQS | area with substrate FNLYFQS | area with substrate GNLYFQS | area with substrate HNLYFQS | area with substrate KNLYFQS | area with substrate MNLYFQS | area with substrate RNLYFQS | area with substrate SNLYFQS | area with substrate INLYFQS | area with substrate VNLYFQS | area with substrate DNLYFQS
17 | P89W | 0.0454 | 0.0692 | 0.0568 | 0.0677 |  | 0.0516 | 0.0462 | 0.0432 |  |  | 0.0456 | 0.05 | 0.0471 | 0.0432 |  | 0.0275 |  | 
18 | K90F | 0.0655 | 0.0781 |  | 0.079 |  |  | 0.0665 |  |  |  | 0.0535 | 0.0418 | 0.111 |  |  | 0.053 |  | 
19 | K90I | 0.0704 | 0.0644 | 0.0419 | 0.0856 | 0.067 | 0.0699 | 0.0509 | 0.0543 | 0.0566 | 0.0733 | 0.0629 |  | 0.062 |  | 0.0629 | 0.0766 | 0.0467 | 
20 | D91C | 0.0533 | 0.068 |  | 0.0539 |  | 0.0664 | 0.0572 |  |  | 0.0816 |  |  |  |  | 0.0788 | 0.0769 |  | 
21 | F92T | 0.0912 | 0.0615 |  | 0.0651 | 0.0726 |  | 0.0395 | 0.0767 | 0.0558 |  | 0.0533 |  | 0.0569 |  | 0.0368 |  | 0.0816 | 
22 | P94D | 0.0617 |  |  |  |  |  | 0.0815 | 0.0656 | 0.0478 |  |  |  | 0.0526 |  |  | 0.0703 | 0.0618 | 0.0788
23 | P94E | 0.0659 | 0.0596 | 0.063 | 0.054 |  |  | 0.0601 |  | 0.0746 | 0.0632 | 0.0662 |  | 0.0637 |  |  |  |  | 
24 | P94Q | 0.067 | 0.0721 | 0.0682 | 0.0663 |  | 0.0932 | 0.0664 | 0.0465 | 0.0642 | 0.0695 | 0.0692 | 0.0664 |  |  | 0.0597 |  | 0.0672 | 
25 | P94Y | 0.0678 |  | 0.0643 | 0.0683 |  | 0.106 | 0.0466 |  | 0.072 |  | 0.0675 |  |  |  |  | 0.0926 |  | 
26 | F95R | 0.045 | 0.0503 | 0.0402 | 0.061 | 0.0681 | 0.0592 | 0.05 | 0.05 | 0.0562 | 0.0619 | 0.043 | 0.0668 | 0.0239 |  | 0.0551 | 0.0565 | 0.0541 | 
27 | F95S | 0.0554 | 0.0551 |  | 0.0525 | 0.0376 |  | 0.0541 | 0.0566 | 0.0609 | 0.0662 | 0.0665 | 0.0694 | 0.058 | 0.0654 | 0.0613 |  | 0.0627 | 
28 | K98Q | 0.072 |  |  | 0.0671 |  | 0.077 | 0.0582 |  |  |  | 0.0487 |  | 0.049 |  |  |  | 0.0581 | 
29 | L99C | 0.0701 | 0.0511 |  | 0.0666 |  | 0.0689 | 0.0605 | 0.0655 | 0.0543 | 0.0799 | 0.0774 | 0.0751 | 0.0588 |  | 0.0662 | 0.0593 |  | 
30 | L99S | 0.0614 |  | 0.0716 | 0.0523 |  |  | 0.0472 | 0.0655 | 0.0697 | 0.0642 | 0.0721 | 0.0548 | 0.0588 |  | 0.0441 | 0.0642 |  | 
31 | K100N | 0.0794 |  |  |  |  | 0.0387 | 0.0629 | 0.0545 |  |  |  | 0.0626 |  |  |  | 0.051 |  | 
